Test results reported in patent US11178870B2 (priority 2017, dated 2021).

What was measured:
Magnaporthe grisea = assay type: in vivo; conditions: Table 7, Test A
[1] = system: Colletotrichum orbiculare; conditions: 250 ppm sprayed (2.5 ml/pot) before inoculation; assessed 6 to 10 days after inoculation
Phytophthora infestans = assay type: in vivo; conditions: Table 7, Test F

Q: `CCn1c(-c2ccccc2Br)c(-n2cc(Cl)cn2)cc(Cl)c1=O` [Compound 195] was tested. Which “control value, Test A (blast on rice)” value (Magnaporthe grisea) did it give?
A: H (H shows the control value more than 50%)

Q: What about the “control value, Test H (anthracnose on cucumber)” value (from here on “control value, Test H”) [1] of the same compound?
A: H (H shows the control value more than 50%)

Q: And the “control value, Test F (late blight on tomato)” value (from here on “control value, Test F”) (Phytophthora infestans)?
A: L (L shows the control value of 50% or less)

Q: What does the source list for `CCn1c(-c2c(F)cccc2Cl)c(-n2cc(Cl)cn2)ccc1=O` [Compound 197]?
A: control value, Test A (blast on rice) (Magnaporthe grisea): H (H shows the control value more than 50%); control value, Test H (anthracnose on cucumber) [1]: H (H shows the control value more than 50%); control value, Test F (late blight on tomato) (Phytophthora infestans): L (L shows the control value of 50% or less)

Q: `CCn1c(-c2ccccc2OC)c(-n2ncc(C)c2Cl)cc(Cl)c1=O` [Compound 248] was tested. Which “control value, Test A (blast on rice)” value (Magnaporthe grisea) did it give?
A: H (H shows the control value more than 50%)

Q: And the “control value, Test H” value [1]?
A: H (H shows the control value more than 50%)

Q: What about the “control value, Test F” value (Phytophthora infestans) of the same compound?
A: L (L shows the control value of 50% or less)

Q: Which results are given for `COc1ccc(-c2c(-n3cc(Cl)cn3)cc(Cl)c(=O)n2CC(F)F)c(Br)c1` [Compound 287]?
A: control value, Test A (blast on rice) (Magnaporthe grisea): H (H shows the control value more than 50%); control value, Test H (anthracnose on cucumber) [1]: H (H shows the control value more than 50%); control value, Test F (late blight on tomato) (Phytophthora infestans): L (L shows the control value of 50% or less)

Q: `CCn1c(-c2ccccc2Cl)c(-n2cc(F)cn2)cc(Br)c1=O` [Compound 313] was tested. Which “control value, Test A (blast on rice)” value (Magnaporthe grisea) did it give?
A: H (H shows the control value more than 50%)

Q: And the “control value, Test H” value [1]?
A: H (H shows the control value more than 50%)

Q: And the “control value, Test F” value (Phytophthora infestans)?
A: L (L shows the control value of 50% or less)

Q: `CCn1c(-c2ccc(F)cc2F)c(-n2cc(F)cn2)cc(Cl)c1=O` [Compound 251] was tested. Which “control value, Test A (blast on rice)” value (Magnaporthe grisea) did it give?
A: H (H shows the control value more than 50%)

Q: And the “control value, Test H” value [1]?
A: H (H shows the control value more than 50%)

Q: What about the “control value, Test F” value (Phytophthora infestans) of the same compound?
A: L (L shows the control value of 50% or less)

Q: Which “control value, Test A (blast on rice)” value (Magnaporthe grisea) does the source give for `CCn1c(-c2ccc(F)cc2Cl)c(-n2cc(F)cn2)ccc1=O` [Compound 327] here?
A: H (H shows the control value more than 50%)

Q: With `CCn1c(-c2ccccc2OC)c(-n2ncc(C)c2Cl)cc(Br)c1=O` [Compound 249] as the compound, how does the “control value, Test A (blast on rice)” value (Magnaporthe grisea) read?
A: L (L shows the control value of 50% or less)

Q: What about the “control value, Test H” value [1] of the same compound?
A: L (L shows the control value of 50% or less)

Q: And the “control value, Test F” value (Phytophthora infestans)?
A: L (L shows the control value of 50% or less)

Q: `O=c1ccc(-n2cc(F)cn2)c(-c2c(F)cc(F)cc2F)n1CC(F)F` [Compound 282] was tested. Which “control value, Test A (blast on rice)” value (Magnaporthe grisea) did it give?
A: H (H shows the control value more than 50%)

Q: And the “control value, Test H” value [1]?
A: H (H shows the control value more than 50%)

Q: And the “control value, Test F” value (Phytophthora infestans)?
A: L (L shows the control value of 50% or less)

Q: What does the source list for `O=c1c(Br)cc(-c2cc(Br)sc2Br)c(-c2c(F)cccc2F)n1CC(F)F` [Compound 325]?
A: control value, Test A (blast on rice) (Magnaporthe grisea): L (L shows the control value of 50% or less); control value, Test H (anthracnose on cucumber) [1]: L (L shows the control value of 50% or less); control value, Test F (late blight on tomato) (Phytophthora infestans): L (L shows the control value of 50% or less)

Q: Which results are given for `O=c1c(Br)cc(-n2cc(Cl)cn2)c(-c2ccc(F)cc2Br)n1CC(F)F` [Compound 275]?
A: control value, Test A (blast on rice) (Magnaporthe grisea): H (H shows the control value more than 50%); control value, Test H (anthracnose on cucumber) [1]: L (L shows the control value of 50% or less); control value, Test F (late blight on tomato) (Phytophthora infestans): L (L shows the control value of 50% or less)

Q: For `CCn1c(-c2c(F)cccc2Cl)c(-n2cc(Cl)cn2)cc(Cl)c1=O` [Compound 198], which “control value, Test A (blast on rice)” value (Magnaporthe grisea) is on record?
A: L (L shows the control value of 50% or less)

Q: What about the “control value, Test H” value [1] of the same compound?
A: L (L shows the control value of 50% or less)

Q: And the “control value, Test F” value (Phytophthora infestans)?
A: L (L shows the control value of 50% or less)
